Reference: publication PMC6602471
Some of the results follow. At the low end of the ranking the order means little.

Each sequence was assayed against T1, ELK1 (UniProt P19419) (assay: custom PBM). Conditions: custom protein-binding microarray; buffer, salt, pH and temperature not stated; high values mean tight binding; double strand, one strand shown.
T1 sequence: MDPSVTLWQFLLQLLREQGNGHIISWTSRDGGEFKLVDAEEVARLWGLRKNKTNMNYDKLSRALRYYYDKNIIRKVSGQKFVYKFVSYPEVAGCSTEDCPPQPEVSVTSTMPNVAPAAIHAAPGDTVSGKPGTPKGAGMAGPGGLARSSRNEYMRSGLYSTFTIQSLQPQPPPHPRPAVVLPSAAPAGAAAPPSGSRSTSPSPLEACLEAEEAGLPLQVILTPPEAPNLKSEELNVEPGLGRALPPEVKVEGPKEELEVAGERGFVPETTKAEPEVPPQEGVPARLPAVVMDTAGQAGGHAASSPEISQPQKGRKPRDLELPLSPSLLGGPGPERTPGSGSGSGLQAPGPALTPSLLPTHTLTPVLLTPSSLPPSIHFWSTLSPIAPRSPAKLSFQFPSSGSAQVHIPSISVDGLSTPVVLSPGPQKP
With “CAGCATAGGACTTCTTCCCTTAAGCAATTGATAACCGTCTTGATTCGCTTGACGCTGCTG” the binding signal (log fluorescence intensity) was 8.9. Sequence “CACAATTTTTACAGTAATGTAGCACGCATAACTCCTGTCTTGATTCGCTTGACGCTGCTG” has a binding signal (log fluorescence intensity) of 8.9. Work on “CAGCATAGGACTTCTGCCCTGAAGCAATTGATAACCGTCTTGATTCGCTTGACGCTGCTG” yielded a binding signal (log fluorescence intensity) of 8.86. Work on “GCTGCTGCGGTGCATACCCCACCAGATGTGACCCCGGTCTTGATTCGCTTGACGCTGCTG” yielded a binding signal (log fluorescence intensity) of 8.86. “TGTCGGGGAAGGGAATGTAGATCACGTGAATGAAAAGTCTTGATTCGCTTGACGCTGCTG” gave a binding signal (log fluorescence intensity) of 8.86. Work on “CACTATTTTTACAGTAATGTAGCACGCGTAACTCCTGTCTTGATTCGCTTGACGCTGCTG” yielded a binding signal (log fluorescence intensity) of 8.94. Work on “CTGGGACTTGACCCAAATCTGCCACGTGGGTCGTTTGTCTTGATTCGCTTGACGCTGCTG” yielded a binding signal (log fluorescence intensity) of 9. “CAGCATAGGACTTCTTCCCTGAAGCAATTGATAATCGTCTTGATTCGCTTGACGCTGCTG” showed a binding signal (log fluorescence intensity) of 8.79. Work on “CAGCATAGGACTTCTTCCCTGAAGCAATTGATTACCGTCTTGATTCGCTTGACGCTGCTG” yielded a binding signal (log fluorescence intensity) of 8.83. Work on “CTGGGCCTTGACCCAACTCTGCCACGTGGGTCGTTTGTCTTGATTCGCTTGACGCTGCTG” yielded a binding signal (log fluorescence intensity) of 8.82. “GATTATTTTCTGCCCTTATTCGCACGTGCCATAACAGTCTTGATTCGCTTGACGCTGCTG” showed a binding signal (log fluorescence intensity) of 8.81. “CGGAAGTGTCGTAAACGTCGGATATCCGGTTCTTTTGTCTTGATTCGCTTGACGCTGCTG” gave a binding signal (log fluorescence intensity) of 12.5. In the case of “TGTCGGGTAAGGGAATTTAGATCACGTGAATGAAAAGTCTTGATTCGCTTGACGCTGCTG”, the binding signal (log fluorescence intensity) is reported as 8.87. “TGTCGGGTCAGGGAATGTAGATCACGTGAATGAAAAGTCTTGATTCGCTTGACGCTGCTG” showed a binding signal (log fluorescence intensity) of 8.78. In the case of “CAGAAGTGTCGTAAACGTCGGATATCCGGTTCTTCTGTCTTGATTCGCTTGACGCTGCTG”, the binding signal (log fluorescence intensity) is reported as 12.6. Work on “GCTGCTGCGGTGCATACCCCACAGGATGTGACCCCGGTCTTGATTCGCTTGACGCTGCTG” yielded a binding signal (log fluorescence intensity) of 9.08. “GGAAAAAGGCCCAGGCTAACACCGGAAGTGGGCTTAGTCTTGATTCGCTTGACGCTGCTG” showed a binding signal (log fluorescence intensity) of 11.1. Sequence “GGAAAACGGCCCAGGGTAACACCGGAAGTGGGCTTAGTCTTGATTCGCTTGACGCTGCTG” has a binding signal (log fluorescence intensity) of 10.9. Sequence “TACTGACTTATATATGCGAATGCACATGAATATACCGTCTTGATTCGCTTGACGCTGCTG” has a binding signal (log fluorescence intensity) of 8.84. “GATCAATTTCTGCCCTTATTCGCACGTGCCATAACAGTCTTGATTCGCTTGACGCTGCTG” gave a binding signal (log fluorescence intensity) of 8.78. “CTTGGACTTGACCCAACTCTGCCACGTGGGTCGTTTGTCTTGATTCGCTTGACGCTGCTG” showed a binding signal (log fluorescence intensity) of 8.74. For “CGGAAGTGTCGTAAACGTCTGATATCCGGTTCTTCTGTCTTGATTCGCTTGACGCTGCTG”, the binding signal (log fluorescence intensity) was 11.1. Work on “TACTGACTTATATATGCGCATGCACATGAATAGACCGTCTTGATTCGCTTGACGCTGCTG” yielded a binding signal (log fluorescence intensity) of 8.78. In the case of “CAGCATAGGACTTCTTCCCTGAAGCGATTGATAACCGTCTTGATTCGCTTGACGCTGCTG”, the binding signal (log fluorescence intensity) is reported as 8.89. “GATTAATTTCTGCCCTTATTCGCACGTGCCATATCAGTCTTGATTCGCTTGACGCTGCTG” was tested, and the binding signal (log fluorescence intensity) was 8.98. Sequence “TAAAGGGAAGACGGTTGTGGTAATTCCGGGTATTAAGTCTTGATTCGCTTGACGCTGCTG” has a binding signal (log fluorescence intensity) of 10.1. “GCTGCTGCGGTGCGTACCCCACCGGATGTGACCCCGGTCTTGATTCGCTTGACGCTGCTG” gave a binding signal (log fluorescence intensity) of 10.3. “GTGTATAGGATCCCATCCAACACAAGTGTTAAAATGGTCTTGATTCGCTTGACGCTGCTG” gave a binding signal (log fluorescence intensity) of 8.78. In the case of “CTGGGACTTGACCCAACGCTGCCACGTGGGTCGTTTGTCTTGATTCGCTTGACGCTGCTG”, the binding signal (log fluorescence intensity) is reported as 8.83. “CTGGGACTTGACCCAACTCTGCCACGTGGGTCTTTTGTCTTGATTCGCTTGACGCTGCTG” was tested, and the binding signal (log fluorescence intensity) was 8.84. In the case of “TCCGGCTACCAGCTCCACCCAGTTCAGGCCTTGTAGGTCTTGATTCGCTTGACGCTGCTG”, the binding signal (log fluorescence intensity) is reported as 8.98. “GTGTATAGGATCCCATCCAACACACGTGTTAGAATGGTCTTGATTCGCTTGACGCTGCTG” gave a binding signal (log fluorescence intensity) of 8.79. “CTGGGACTTGACCCAACTCTGCTACGTGGGTCGTTTGTCTTGATTCGCTTGACGCTGCTG” showed a binding signal (log fluorescence intensity) of 8.94. Work on “GTGTATAGGATCCCATCCAACACTCGTGTTAAAATGGTCTTGATTCGCTTGACGCTGCTG” yielded a binding signal (log fluorescence intensity) of 8.95. “CCGCATAGGACTTCTTCCCTGAAGCAATTGATAACCGTCTTGATTCGCTTGACGCTGCTG” gave a binding signal (log fluorescence intensity) of 8.86. Work on “GGAAAAAGGCCCAGGGTAACACCGGAAGTGCGCTTAGTCTTGATTCGCTTGACGCTGCTG” yielded a binding signal (log fluorescence intensity) of 11. With “TAAAGGGAAGACGGTTGTGGTAGTTCGGGGTATTAAGTCTTGATTCGCTTGACGCTGCTG” the binding signal (log fluorescence intensity) was 8.99. For “TACTGACTTATATATACGAATGCACATGAATAGACCGTCTTGATTCGCTTGACGCTGCTG”, the binding signal (log fluorescence intensity) was 8.81. Sequence “CTGGGACTTGACCCAACTCTGCCAGGTGGGTCGTTTGTCTTGATTCGCTTGACGCTGCTG” has a binding signal (log fluorescence intensity) of 8.97. “TACTGACTTACATATGCGAATGCACATGAATAGACCGTCTTGATTCGCTTGACGCTGCTG” showed a binding signal (log fluorescence intensity) of 8.87. “GTGTATAGGATCCCATCCAACACACGTGATAAAATGGTCTTGATTCGCTTGACGCTGCTG” showed a binding signal (log fluorescence intensity) of 8.94. “GTGTATTGGATCCCATCCAACACACGTGTTAAAATGGTCTTGATTCGCTTGACGCTGCTG” was tested, and the binding signal (log fluorescence intensity) was 8.76. For “GGAAAAAGGCCCAGGGTAACATCGGAAGTGGGCTTAGTCTTGATTCGCTTGACGCTGCTG”, the binding signal (log fluorescence intensity) was 9.73. With “GATTAATTTCTCCCCTTATTCGCACGTGCCATAACAGTCTTGATTCGCTTGACGCTGCTG” the binding signal (log fluorescence intensity) was 8.8. Work on “GTGTATAGGATCGCATCCAACACACGTGTTAAAATGGTCTTGATTCGCTTGACGCTGCTG” yielded a binding signal (log fluorescence intensity) of 8.7. With “GGAAAGAGGCCCAGGGTAACACCGGAAGTGGGCTTAGTCTTGATTCGCTTGACGCTGCTG” the binding signal (log fluorescence intensity) was 10.8. “CACAATTCTTACAGTAATGTAGCACGCGTAACTCCTGTCTTGATTCGCTTGACGCTGCTG” gave a binding signal (log fluorescence intensity) of 8.9. In the case of “CTGGGACTTGACCCAACTCTGCGACGTGGGTCGTTTGTCTTGATTCGCTTGACGCTGCTG”, the binding signal (log fluorescence intensity) is reported as 8.85. With “TAACGGGAAGACGGTTGTGGTAGTTCCGGGTATTAAGTCTTGATTCGCTTGACGCTGCTG” the binding signal (log fluorescence intensity) was 11.2. For “GGAAAAAGCCCCAGGGTAACACCGGAAGTGGGCTTAGTCTTGATTCGCTTGACGCTGCTG”, the binding signal (log fluorescence intensity) was 10.8. Work on “CACAATTTTTACAGTAACGTAGCACGCGTAACTCCTGTCTTGATTCGCTTGACGCTGCTG” yielded a binding signal (log fluorescence intensity) of 8.84. With “TCCGGCTACCAGCCCCACCCACTTCAGGCCTTGTAGGTCTTGATTCGCTTGACGCTGCTG” the binding signal (log fluorescence intensity) was 8.94.
